# Test results reported in the supplement of paper PMC8728848.
# The list shows a part of the results.
# Key:
# Experiment in all cases: glycan array binding signal (z-score within array); higher = stronger binding
# Settings in all cases: glycan notation: IUPAC condensed, linker removed
# [1] = molecular target: Gal(b1-4)GalNAc(b1-3)[Fuc(a1-2)]Gal(b1-4)GlcNAc
# Summary of the method: (§1)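 The Consortium for Functional Glycomics database supplied 3228 glycan arrays, of which those lacking an available protein sequence were dropped. The binding signal, a within-array Z-score, was averaged across arrays of the same protein sequence and across linkers. Negative scores can be read as non-binding.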
# [2] = molecular target: Gal(b1-4)Glc
# Summary of the method: as §1
# [3] = molecular target: Gal(b1-4)Glc6S
# Summary of the method: as §1
# [4] = molecular target: Gal(b1-4)GlcNAc
# Summary of the method: as §1
# [5] = molecular target: Gal(b1-4)GlcNAc(a1-6)Gal(b1-4)GlcNAc
# Summary of the method: as §1
# [6] = molecular target: Gal(b1-4)GlcNAc(b1-2)Man
# Summary of the method: as §1
# [7] = molecular target: Gal(b1-4)GlcNAc(b1-2)Man(a1-3)Man(b1-4)GlcNAc(b1-4)GlcNAc
# Summary of the method: as §1
# [8] = molecular target: Gal(b1-4)GlcNAc(b1-2)Man(a1-3)[Gal(b1-4)GlcNAc(b1-2)Man(a1-6)]Man(b1-4)GlcNAc(b1-4)GlcNAc
# Summary of the method: as §1
# [9] = molecular target: Gal(b1-4)GlcNAc(b1-2)Man(a1-3)[Gal(b1-4)GlcNAc(b1-2)Man(a1-6)]Man(b1-4)GlcNAc(b1-4)[Fuc(a1-6)]GlcNAc
# Summary of the method: as §1
# [10] = molecular target: Gal(b1-4)GlcNAc(b1-2)Man(a1-3)[Gal(b1-4)GlcNAc(b1-2)Man(a1-6)][Gal(b1-4)GlcNAc(b1-4)]Man(b1-4)GlcNAc(b1-4)[Fuc(a1-6)]GlcNAc
# Summary of the method: as §1
# [11] = molecular target: Gal(b1-4)GlcNAc(b1-2)Man(a1-3)[Gal(b1-4)GlcNAc(b1-2)Man(a1-6)][GlcNAc(b1-4)]Man(b1-4)GlcNAc(b1-4)[Fuc(a1-6)]GlcNAc
# Summary of the method: as §1
# [12] = molecular target: Gal(b1-4)GlcNAc(b1-2)Man(a1-3)[GlcNAc(b1-2)Man(a1-6)]Man(b1-4)GlcNAc(b1-4)GlcNAc
# Summary of the method: as §1
# [13] = molecular target: Gal(b1-4)GlcNAc(b1-2)Man(a1-3)[GlcNAc(b1-4)][Gal(b1-4)GlcNAc(b1-2)Man(a1-6)]Man(b1-4)GlcNAc(b1-4)GlcNAc
# Summary of the method: as §1
# [14] = molecular target: Gal(b1-4)GlcNAc(b1-2)Man(a1-3)[Man(a1-6)]Man(b1-4)GlcNAc(b1-4)GlcNAc
# Summary of the method: as §1
# [15] = molecular target: Gal(b1-4)GlcNAc(b1-2)Man(a1-6)Man(b1-4)GlcNAc(b1-4)GlcNAc
# Summary of the method: as §1
# [16] = molecular target: Gal(b1-4)GlcNAc(b1-2)Man(a1-6)[GlcNAc(b1-2)Man(a1-3)]Man(b1-4)GlcNAc(b1-4)GlcNAc
# Summary of the method: as §1
# [17] = molecular target: Gal(b1-4)GlcNAc(b1-2)Man(a1-6)[Man(a1-3)]Man(b1-4)GlcNAc(b1-4)GlcNAc
# Summary of the method: as §1
# [18] = molecular target: Gal(b1-4)GlcNAc(b1-2)[Gal(b1-4)GlcNAc(b1-4)]Man(a1-3)[Gal(b1-4)GlcNAc(b1-2)Man(a1-6)]Man(b1-4)GlcNAc(b1-4)GlcNAc
# Summary of the method: as §1
# [19] = molecular target: Gal(b1-4)GlcNAc(b1-2)[Gal(b1-4)GlcNAc(b1-4)]Man(a1-3)[Gal(b1-4)GlcNAc(b1-2)[Gal(b1-4)GlcNAc(b1-6)]Man(a1-6)]Man(b1-4)GlcNAc(b1-4)GlcNAc
# Summary of the method: as §1
# [20] = molecular target: Gal(b1-4)GlcNAc(b1-2)[Gal(b1-4)GlcNAc(b1-4)]Man(a1-3)[GlcNAc(b1-4)][Gal(b1-4)GlcNAc(b1-2)Man(a1-6)]Man(b1-4)GlcNAc(b1-4)GlcNAc
# Summary of the method: as §1
# [21] = molecular target: Gal(b1-4)GlcNAc(b1-2)[Gal(b1-4)GlcNAc(b1-4)]Man(a1-3)[GlcNAc(b1-4)][Gal(b1-4)GlcNAc(b1-2)[Gal(b1-4)GlcNAc(b1-6)]Man(a1-6)]Man(b1-4)GlcNAc(b1-4)GlcNAc
# Summary of the method: as §1
# [22] = molecular target: Gal(b1-4)GlcNAc(b1-2)[Gal(b1-4)GlcNAc(b1-6)]Man(a1-6)[Gal(b1-4)GlcNAc(b1-2)Man(a1-3)]Man(b1-4)GlcNAc(b1-4)GlcNAc
# Summary of the method: as §1
# [23] = molecular target: Gal(b1-4)GlcNAc(b1-2)[Gal(b1-4)GlcNAc(b1-6)]Man(a1-6)[Gal(b1-4)GlcNAc(b1-2)Man(a1-3)]Man(b1-4)GlcNAc(b1-4)[Fuc(a1-6)]GlcNAc
# Summary of the method: as §1
# [24] = molecular target: Gal(b1-4)GlcNAc(b1-2)[Gal(b1-4)GlcNAc(b1-6)]Man(a1-6)[GlcNAc(b1-4)][Gal(b1-4)GlcNAc(b1-2)Man(a1-3)]Man(b1-4)GlcNAc(b1-4)GlcNAc
# Summary of the method: as §1
# [25] = molecular target: Gal(b1-4)GlcNAc(b1-2)[Gal(b1-4)GlcNAc(b1-6)]Man(a1-6)[GlcNAc(b1-4)][Gal(b1-4)GlcNAc(b1-2)[Gal(b1-4)GlcNAc(b1-4)]Man(a1-3)]Man(b1-4)GlcNAc(b1-4)[Fuc(a1-6)]GlcNAc
# Summary of the method: as §1
# [26] = molecular target: Gal(b1-4)GlcNAc(b1-3)Gal(b1-3)GalNAc
# Summary of the method: as §1
# [27] = molecular target: Gal(b1-4)GlcNAc(b1-3)Gal(b1-3)GlcNAc
# Summary of the method: as §1
# [28] = molecular target: Gal(b1-4)GlcNAc(b1-3)Gal(b1-4)Glc
# Summary of the method: as §1
# [29] = molecular target: Gal(b1-4)GlcNAc(b1-3)Gal(b1-4)GlcNAc
# Summary of the method: as §1
# [30] = molecular target: Gal(b1-4)GlcNAc(b1-3)Gal(b1-4)GlcNAc(b1-2)Man(a1-3)[Gal(b1-4)GlcNAc(b1-3)Gal(b1-4)GlcNAc(b1-2)Man(a1-6)]Man(b1-4)GlcNAc(b1-4)GlcNAc
# Summary of the method: as §1
# [31] = molecular target: Gal(b1-4)GlcNAc(b1-3)Gal(b1-4)GlcNAc(b1-2)Man(a1-3)[Gal(b1-4)GlcNAc(b1-3)Gal(b1-4)GlcNAc(b1-2)Man(a1-6)]Man(b1-4)GlcNAc(b1-4)[Fuc(a1-6)]GlcNAc
# Summary of the method: as §1
# [32] = molecular target: Gal(b1-4)GlcNAc(b1-3)Gal(b1-4)GlcNAc(b1-2)[Gal(b1-4)GlcNAc(b1-3)Gal(b1-4)GlcNAc(b1-6)]Man(a1-6)[Gal(b1-4)GlcNAc(b1-3)Gal(b1-4)GlcNAc(b1-2)Man(a1-3)]Man(b1-4)GlcNAc(b1-4)GlcNAc
# Summary of the method: as §1
# [33] = molecular target: Gal(b1-4)GlcNAc(b1-3)Gal(b1-4)GlcNAc(b1-2)[Gal(b1-4)GlcNAc(b1-3)Gal(b1-4)GlcNAc(b1-6)]Man(a1-6)[Gal(b1-4)GlcNAc(b1-3)Gal(b1-4)GlcNAc(b1-2)Man(a1-3)]Man(b1-4)GlcNAc(b1-4)[Fuc(a1-6)]GlcNAc
# Summary of the method: as §1
# [34] = molecular target: Gal(b1-4)GlcNAc(b1-3)Gal(b1-4)GlcNAc(b1-3)Gal(b1-4)GlcNAc
# Summary of the method: as §1
# [35] = molecular target: Gal(b1-4)GlcNAc(b1-3)Gal(b1-4)GlcNAc(b1-3)Gal(b1-4)GlcNAc(b1-2)Man(a1-3)[Gal(b1-4)GlcNAc(b1-3)Gal(b1-4)GlcNAc(b1-3)Gal(b1-4)GlcNAc(b1-2)Man(a1-6)]Man(b1-4)GlcNAc(b1-4)GlcNAc
# Summary of the method: as §1
# [36] = molecular target: Gal(b1-4)GlcNAc(b1-3)Gal(b1-4)GlcNAc(b1-3)Gal(b1-4)GlcNAc(b1-2)Man(a1-3)[Gal(b1-4)GlcNAc(b1-3)Gal(b1-4)GlcNAc(b1-3)Gal(b1-4)GlcNAc(b1-2)Man(a1-6)]Man(b1-4)GlcNAc(b1-4)[Fuc(a1-6)]GlcNAc
# Summary of the method: as §1
# [37] = molecular target: Gal(b1-4)GlcNAc(b1-3)Gal(b1-4)GlcNAc(b1-3)Gal(b1-4)GlcNAc(b1-2)[Gal(b1-4)GlcNAc(b1-3)Gal(b1-4)GlcNAc(b1-3)Gal(b1-4)GlcNAc(b1-6)]Man(a1-6)[Gal(b1-4)GlcNAc(b1-3)Gal(b1-4)GlcNAc(b1-3)Gal(b1-4)GlcNAc(b1-2)Man(a1-3)]Man(b1-4)GlcNAc(b1-4)[Fuc(a1-6)]GlcNAc
# Summary of the method: as §1
binder,measurement,setting,value
"Epa6 (Candida glabrata), Q6DTM7_CANGB (protein) MGSSHHHHHHSSGLVPRGSHMKDDYSSSLSNNNLGWTDPTEFPLGCSPNVTTPKNGLSMELYSYDYLKSGSNPCWDAAYLDPNYPRTGYKSHRLLAKVENVAGNINFYYHAPMGCTSLFDTLPQAYNYRTPLTMTNFTMLLYGYFKPKVTGYHTFTISADDLLFVNFGAGNAFDCCKRESSADDFGNYQAYAVWGSQTAKDDLTVHLDAGLYYPIRIFFNNRDNDGALSLTLKTESDPNPVIDFSDYFYSFDDTKDGCPGLVSYDTS",glycan array binding signal (z-score),[1],-0.245
same,glycan array binding signal (z-score),[2],-0.274
same,glycan array binding signal (z-score),[3],-0.164
same,glycan array binding signal (z-score),[4],-0.209
same,glycan array binding signal (z-score),[5],0.348
same,glycan array binding signal (z-score),[6],-0.283
same,glycan array binding signal (z-score),[7],-0.298
same,glycan array binding signal (z-score),[8],-0.206
same,glycan array binding signal (z-score),[9],-0.184
same,glycan array binding signal (z-score),[10],-0.313
same,glycan array binding signal (z-score),[11],-0.244
same,glycan array binding signal (z-score),[12],-0.23
same,glycan array binding signal (z-score),[13],-0.277
same,glycan array binding signal (z-score),[14],-0.239
same,glycan array binding signal (z-score),[15],-0.258
same,glycan array binding signal (z-score),[16],-0.285
same,glycan array binding signal (z-score),[17],-0.292
same,glycan array binding signal (z-score),[18],-0.166
same,glycan array binding signal (z-score),[19],-0.094
same,glycan array binding signal (z-score),[20],-0.227
same,glycan array binding signal (z-score),[21],-0.145
same,glycan array binding signal (z-score),[22],-0.198
same,glycan array binding signal (z-score),[23],-0.125
same,glycan array binding signal (z-score),[24],-0.236
same,glycan array binding signal (z-score),[25],-0.147
same,glycan array binding signal (z-score),[26],-0.203
same,glycan array binding signal (z-score),[27],-0.26
same,glycan array binding signal (z-score),[28],-0.208
same,glycan array binding signal (z-score),[29],-0.188
same,glycan array binding signal (z-score),[30],-0.085
same,glycan array binding signal (z-score),[31],-0.045
same,glycan array binding signal (z-score),[32],-0.039
same,glycan array binding signal (z-score),[33],0.191
same,glycan array binding signal (z-score),[34],-0.243
same,glycan array binding signal (z-score),[35],0.068
same,glycan array binding signal (z-score),[36],0.016
same,glycan array binding signal (z-score),[37],0.164
